Data: the supplement of paper PMC3334620
Whole data set: some 33,000 sequences, median “E-score (-0.5 to 0.5)” near -0.035, cut for the highest 2% near 0.35. Some of the results follow.

What follows are sequences tested against T1, Pdr3 (UniProt P33200) (assay: PBM E-score (8-mer binding enrichment) (E-score (-0.5 to 0.5)); higher = stronger / more preferred TF binding; most listed sequences are background and not binding sites). Conditions: protein concentration: 200 nM; construct: GST-full length.
T1 sequence: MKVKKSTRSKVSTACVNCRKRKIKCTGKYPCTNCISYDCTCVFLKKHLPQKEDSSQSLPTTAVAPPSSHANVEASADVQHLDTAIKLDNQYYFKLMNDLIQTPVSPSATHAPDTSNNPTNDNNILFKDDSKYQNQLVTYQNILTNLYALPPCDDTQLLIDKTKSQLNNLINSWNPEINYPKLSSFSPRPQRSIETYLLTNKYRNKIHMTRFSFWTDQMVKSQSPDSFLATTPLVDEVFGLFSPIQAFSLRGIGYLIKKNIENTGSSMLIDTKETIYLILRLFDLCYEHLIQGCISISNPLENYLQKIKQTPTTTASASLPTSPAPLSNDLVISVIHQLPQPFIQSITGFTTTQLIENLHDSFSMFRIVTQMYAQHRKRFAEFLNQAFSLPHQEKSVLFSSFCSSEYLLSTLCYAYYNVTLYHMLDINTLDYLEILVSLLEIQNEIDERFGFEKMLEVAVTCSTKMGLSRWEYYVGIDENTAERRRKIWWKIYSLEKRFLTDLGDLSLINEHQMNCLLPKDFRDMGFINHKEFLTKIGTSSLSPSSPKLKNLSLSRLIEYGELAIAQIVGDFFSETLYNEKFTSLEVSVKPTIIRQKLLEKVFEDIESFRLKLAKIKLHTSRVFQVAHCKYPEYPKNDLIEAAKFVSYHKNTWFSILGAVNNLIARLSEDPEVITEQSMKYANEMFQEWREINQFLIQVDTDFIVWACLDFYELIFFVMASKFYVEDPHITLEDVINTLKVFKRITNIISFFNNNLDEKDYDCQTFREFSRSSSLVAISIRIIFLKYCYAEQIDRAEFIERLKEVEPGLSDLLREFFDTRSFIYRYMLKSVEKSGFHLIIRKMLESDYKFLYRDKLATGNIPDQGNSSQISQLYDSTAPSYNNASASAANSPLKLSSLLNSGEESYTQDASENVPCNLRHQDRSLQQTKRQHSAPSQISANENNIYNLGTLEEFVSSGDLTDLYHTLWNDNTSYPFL
Procedure, shortened: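 Universal all-10-mer Agilent arrays, fresh or stripped once, were converted to double-stranded form by primer extension. GST-tagged yeast transcription factors from PURExpress in vitro transcription/translation, full-length or DNA-binding domain only, were applied at about 100-200 nM and detected with fluorescent anti-GST. After masliner normalisation, the Universal PBM Analysis Suite scored each ungapped eight-base word together with its reverse complement by E-score.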

| Sequence | PBM E-score |
| --- | --- |
| CCCGTGCG | 0.32 |
| GGCTAGCA | -0.139 |
| AACTTAAT | 0.115 |
| ACATAGTA | -0.0655 |
| AACATATG | -0.141 |
| AGGGTAAA | 0.00883 |
| CCAATCAA | -0.0397 |
| CTATGCGA | -0.153 |
| CCTTGAGA | -0.117 |
| CGGTAGGA | 0.0361 |
| GACCCTGC | -0.00937 |
| AGGGATAA | -0.189 |
| GCCGCCGA | 0.292 |
| ATTCACGA | -0.185 |
| ATTTGTTG | -0.0909 |
| ACTAGTCT | -0.25 |
| AATGGAGA | -0.0416 |
| AGGCAAAG | -0.138 |
| ATCTACAT | 0.00308 |
| GGGTACGA | -0.033 |
| CCCACTTC | 0.0717 |
| ATATCCAG | -0.0651 |

| Sequence | PBM E-score |
| --- | --- |
| ATAATCCA | 0.0156 |
| ATAGGGAG | -0.16 |
| CCGGTCGA | 0.167 |
| AAACATAA | -0.0722 |
| TAAACATA | 0.0249 |
| GCACCGGC | 0.146 |
| TACAAGTA | -0.187 |
| ATCCTACG | -0.166 |
| CGTGCCGA | 0.322 |
| AGGGCGTA | -0.0788 |
| CAGCTACA | -0.122 |
| GCCTTGCC | -0.0326 |
| GACTAAGC | -0.0374 |
| AATCTGAG | -0.181 |
| CTTTAAAA | -0.0735 |
| GTGCCCAA | -0.0202 |
| GAGTATAC | -0.139 |
| CAATACGA | -0.107 |
| ACGGTCTG | -0.0213 |
| ACCATTCG | -0.108 |
| CGTAAGTC | 0.00111 |
| ATTGCAAA | -0.0429 |

| Sequence | PBM E-score |
| --- | --- |
| CGTTAATA | 0.171 |
| ATTAAGTA | -0.0128 |
| GGGACAAC | 0.029 |
| CGGTTAGC | -0.074 |
| CAATCAGG | -0.0436 |
| TATGACAA | 0.0342 |
| CAAGCTTA | 0.0749 |
| GACTGTCC | 0.104 |
| GCCGGCCC | 0.282 |
| GGGAAAAC | 0.0253 |
| ACTACGCT | -0.227 |
| TGCATCCA | -0.0138 |
| TCAGGGCA | -0.0916 |
| CTACGCCA | -0.222 |
| CCGAAGTC | 0.0487 |
| GCACACCC | -0.149 |
| GGTAAGCA | -0.186 |
| ACGGGTTG | 0.154 |
| ATGGGCGC | 0.0452 |
| TCTGTTAA | -0.196 |
| AAACCCCT | -0.162 |
| ATTAGAAC | 0.101 |

| Sequence | PBM E-score |
| --- | --- |
| ACATGAGA | -0.0615 |
| AGCACGCA | -0.228 |
| AACAAACA | -0.0734 |
| GCCAACGA | -0.0382 |
| AAATTTAG | 0.0897 |
| CCGGAGCG | 0.37 |
| CAACGGGC | 0.0498 |
| CCTGCGTC | -0.107 |
| GATGTTCA | -0.0286 |
| GACGGTCC | 0.173 |
| ACAAGTTG | 0.0483 |
| GATTGTAA | 0.00517 |
| AAACGGAG | 0.184 |
| CAACTTAG | 0.191 |
| CTGTTATA | -0.0807 |
| ACGACGAG | -0.263 |
| AAGCTATT | -0.112 |
| GGATAACA | 0.149 |
| ACGTTCAA | -0.145 |
| AGCATGTC | 0.045 |
